This is an account of results in paper PMC4336329 (PLoS ONE, 2015).

In all, about 310,000 compounds went through this assay and about 2,200 (0.71%) showed an effect of 50% or more. The effect is printed as a negative number. Some of the results follow.

For the assay, the target named is human ether-à-go-go-related gene (hERG) potassium channel (human, UniProt Q12809). Nature of the assay: primary screen, population patch clamp on CHO cells stably expressing hERG.
human ether-à-go-go-related gene (hERG) potassium channel, sequence (Q12809 whole entry, looked up): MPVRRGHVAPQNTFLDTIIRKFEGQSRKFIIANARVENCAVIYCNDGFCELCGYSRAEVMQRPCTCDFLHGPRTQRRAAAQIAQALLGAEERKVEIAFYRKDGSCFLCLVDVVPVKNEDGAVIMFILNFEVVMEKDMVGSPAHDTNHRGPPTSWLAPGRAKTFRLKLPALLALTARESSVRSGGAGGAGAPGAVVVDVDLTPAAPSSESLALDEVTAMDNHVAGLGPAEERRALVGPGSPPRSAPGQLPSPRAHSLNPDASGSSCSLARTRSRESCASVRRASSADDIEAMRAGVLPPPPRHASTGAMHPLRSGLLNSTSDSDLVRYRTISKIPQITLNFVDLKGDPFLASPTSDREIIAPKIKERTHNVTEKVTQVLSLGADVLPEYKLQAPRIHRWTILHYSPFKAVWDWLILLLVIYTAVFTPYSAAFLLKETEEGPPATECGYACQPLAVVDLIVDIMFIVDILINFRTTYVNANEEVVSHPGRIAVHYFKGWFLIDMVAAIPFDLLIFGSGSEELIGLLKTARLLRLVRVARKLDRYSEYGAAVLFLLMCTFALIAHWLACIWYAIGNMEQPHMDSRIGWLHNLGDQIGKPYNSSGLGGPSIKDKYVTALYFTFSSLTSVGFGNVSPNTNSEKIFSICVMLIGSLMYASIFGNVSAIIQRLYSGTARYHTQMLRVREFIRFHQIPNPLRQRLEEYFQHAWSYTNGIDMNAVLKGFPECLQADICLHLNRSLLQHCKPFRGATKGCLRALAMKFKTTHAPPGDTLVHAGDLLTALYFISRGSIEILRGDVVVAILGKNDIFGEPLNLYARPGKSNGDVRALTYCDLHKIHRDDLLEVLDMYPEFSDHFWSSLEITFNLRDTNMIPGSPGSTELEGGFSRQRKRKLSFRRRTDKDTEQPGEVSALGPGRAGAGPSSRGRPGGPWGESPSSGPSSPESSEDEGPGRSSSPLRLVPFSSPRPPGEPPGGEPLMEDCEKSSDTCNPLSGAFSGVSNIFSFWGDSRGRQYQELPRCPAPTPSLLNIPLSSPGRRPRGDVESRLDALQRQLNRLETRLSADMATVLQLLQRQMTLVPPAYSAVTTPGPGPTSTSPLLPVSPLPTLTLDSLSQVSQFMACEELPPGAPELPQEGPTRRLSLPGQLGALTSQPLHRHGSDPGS
Take `COc1ccccc1N(CC(=O)NC1CCCCC1)C(=O)c1cnn(C(C)C)c1`: the “hERG current change (%, negative = inhibition) at 1uM” value is on record as 1.25%.

`Nc1nnc2c(n1)CCCC2`: the “hERG current change (%, negative = inhibition) at 1uM” value is recorded as -8.6%. In the case of `CCOc1ccc(S(=O)(=O)NCCC(=O)N2CCCCCCC2)cc1`, the “hERG current change (%, negative = inhibition) at 1uM” value is reported as 6.86%. With `O=C(CSc1nc(-c2ccncc2)nn1CC(=O)N1CCCCC1)NC1CCCC1`, the “hERG current change (%, negative = inhibition) at 1uM” value is reported as -9.75%. As for `CCCC(=O)Nc1nnc(S(=O)(=O)N(C)Cc2ccco2)s1`, the figure is 10.8%; as for `Cc1cc(C)c([N+](=O)[O-])cc1NCC(=O)N1CCN(c2ccccc2)CC1`, 17.5%; as for `CC(C)COc1ccc(-c2cc(C(=O)NN)[nH]n2)cc1`, 11.4%. As for `O=c1c2ccccc2nnn1CSc1nnc(-c2cccnc2)n1-c1ccccc1F`, the figure is 12.1%; as for `CCOc1ccc(CCNC(=O)CS(=O)Cc2nc(-c3ccc(OC)c(OC)c3)oc2C)cc1OCC` (stereo not shown), 10%; as for `CN1CCN(C(=S)Nc2ccc(S(N)(=O)=O)cc2)CC1`, 12.8%. For `COc1ccc(OC)c(CNc2ncc(-c3cccc([N+](=O)[O-])c3)n2C)c1.O=C(O)C(=O)O`, the “hERG current change (%, negative = inhibition) at 1uM” value is -11.2%. As to `Nc1nnc(CSc2ccc(Cl)cc2)s1`, the “hERG current change (%, negative = inhibition) at 1uM” value turned out to be 14.7%. On to `Cc1cc(C)c2c(c1)C1C=CCC1C(c1ccc(S(=O)(=O)N3CCOCC3)cc1)N2` (stereo not shown), for which the “hERG current change (%, negative = inhibition) at 1uM” value came to 13.8%. Consider `CC(C)(C)NC(=O)CN(C(=O)Cn1nnc(-c2ccc(Cl)cc2)n1)C1CCN(Cc2ccccc2)CC1`, for which the “hERG current change (%, negative = inhibition) at 1uM” value came to 10.6%. As for `Cc1ccc(Cn2c(SCC(=O)N/N=C/c3ccccc3OCC(=O)O)nc3ccccc32)cc1`, the “hERG current change (%, negative = inhibition) at 1uM” value was 7.61%. Regarding `O=[N+]([O-])c1cccc(-c2cn(-c3ccccc3)c(=S)[nH]2)c1`, the “hERG current change (%, negative = inhibition) at 1uM” value is 11.4%. As for `CC1=NN(C(N)=S)C(=O)C1N=Nc1c(Cl)cc([N+](=O)[O-])cc1Cl` (stereo not shown), the figure is 10.5%; as for `COc1ccc2nc(Sc3c([N+](=O)[O-])nc(C)n3Cc3ccccc3)[nH]c2c1`, 5.85%. Next, `O=C(NC12CC3CC(CC(C3)C1)C2)c1cccc([N+](=O)[O-])c1`: 11.1%; `Cc1ccc(NC(=O)Cn2c(=O)c3cccn3c3ccccc32)cc1`: 10.8%. `Cc1ccccc1SCC(=O)OCC(=O)Nc1ccc(N(C)C)cc1`: the “hERG current change (%, negative = inhibition) at 1uM” value is recorded as 7.98%. In the case of `Nc1nnc(SCC(=O)NNC(=O)c2ccc([N+](=O)[O-])cc2)s1`, the “hERG current change (%, negative = inhibition) at 1uM” value is on record as 16.6%. For the compound `Cc1ccc(C)c(-c2nn(-c3cc(N4CCN(CCO)CC4)ccc3[N+](=O)[O-])c(=O)c3ccccc23)c1`, the “hERG current change (%, negative = inhibition) at 1uM” value was -0.228%.

Turning to `Cc1c(C(=O)NNC(=O)c2csc(N3CCOCC3)n2)cccc1[N+](=O)[O-]`, the “hERG current change (%, negative = inhibition) at 1uM” value is recorded as 9.03%. As for `Cc1cccc(C2c3[nH]c4ccccc4c3CCN2C(=O)Cc2nc(-c3ccccc3)n[nH]2)n1` (stereo not shown), the figure is 8.33%; as for `O=C(CN1C(=O)C(=O)N(Cc2ccco2)C1=O)c1c[nH]c2ccccc12`, 13.6%. For the compound `CCCCP(=O)(CCCC)Cc1ccccc1`, the “hERG current change (%, negative = inhibition) at 1uM” value amounted to 12.9%. As for `COCCC(=O)N1CCC(Oc2ccc(C(=O)N3C[C@@H]4CCC[C@H]3C4)cc2)CC1`, the figure is 5.49%.

For the compound `CC(Cc1ccccc1)NC(=O)/C=C/c1ccc(Cl)cc1` (stereo not shown), the “hERG current change (%, negative = inhibition) at 1uM” value is recorded as 8.25%. Regarding `CC(/C=C/c1ccccc1)=N/NC(=O)CNC(=O)c1ccc2c(c1)OCO2`, the “hERG current change (%, negative = inhibition) at 1uM” value is 3.05%. Regarding `O=C(c1cccnc1)n1nc(NCc2ccccc2)nc1NCc1ccccc1`, the “hERG current change (%, negative = inhibition) at 1uM” value is given as -0.112%. As to `NC(=O)CCCCC(=O)OCCCc1cccs1`, the “hERG current change (%, negative = inhibition) at 1uM” value worked out at 9.25%. Consider `COc1ccc(Cc2nc3ccc(C(=O)NCCn4cccn4)cc3o2)cc1`, for which the “hERG current change (%, negative = inhibition) at 1uM” value came out at 0.926%. In the case of `COc1ccc(CNC(=O)CN(c2ccccc2)S(=O)(=O)c2ccccc2[N+](=O)[O-])cc1`, the “hERG current change (%, negative = inhibition) at 1uM” value came out at 2.89%.

Consider `S=C(Nc1ccc(Br)cc1Cl)Nn1cnnc1`, for which the “hERG current change (%, negative = inhibition) at 1uM” value turned out to be 20.3%. In the case of `Cc1ccn2c(NC3CCCCC3)c(-c3cccc(-c4cccc(Cl)c4)c3)nc2c1.O=C(O)C(F)(F)F`, the “hERG current change (%, negative = inhibition) at 1uM” value stood at 11.3%. As for `Cc1cc(C)c(C)c(S(=O)(=O)NCC(=O)NCC2CCCCC2)c1C`, the figure is 18.4%; as for `CC(NCCN(C)C)C(=O)C12CC3CC(CC(C3)C1)C2.Cl` (stereo not shown), 12.1%. As for `O=C(O)CC(NC(=O)CCc1ccccc1)c1ccc(Cl)cc1` (stereo not shown), the figure is 11.7%; as for `Cn1c(=O)c2c(nc(CN3CCN(CCO)CC3)n2CCc2ccccc2)n(C)c1=O`, 14.3%. On to `O=S(=O)(c1ccccc1)C1(S(=O)(=O)c2ccccc2)CCCC1`, for which the “hERG current change (%, negative = inhibition) at 1uM” value is listed as 8.34%.

In the case of `COCCN1C=C(C(=O)OC)C(c2ccc(Cl)cc2)C(C(=O)OC)=C1`, the “hERG current change (%, negative = inhibition) at 1uM” value was 6.88%. As for `CCOc1ccc(OCC)c(NC(=O)CCCN2C(=O)c3cccnc3C2=O)c1`, the figure is 10.2%. `O=c1[nH]c(CN2CCCC2)nc2sc3c(c12)CCC3`: the “hERG current change (%, negative = inhibition) at 1uM” value stood at 4.54%. `CCn1cnc2cc(NCc3ccccc3Cl)ccc21`: the “hERG current change (%, negative = inhibition) at 1uM” value was -10.3%. Next, `CCCCOC(=O)C(NC(=O)c1ccccc1)=C(C)C`: 7.06%.

Consider `Cc1cccc(N(CC(N)=O)S(C)(=O)=O)c1C`, for which the “hERG current change (%, negative = inhibition) at 1uM” value is 19.6%. On to `Cc1ccc(C)c(OCC(=O)Nc2ccc(S(=O)(=O)Nc3ncccn3)cc2)c1`, for which the “hERG current change (%, negative = inhibition) at 1uM” value was 3.31%.

Regarding `COc1cc(OC)cc(C(=O)N[C@H](C(=O)Nc2ccc(S(=O)(=O)N(C)C)cc2)C(C)C)c1`, the “hERG current change (%, negative = inhibition) at 1uM” value came out at 13.4%.

As for `CCCNC(=O)CCc1nnc2ccc(N3CCC(C)CC3)nn12`, the “hERG current change (%, negative = inhibition) at 1uM” value amounted to 12.3%. As for `Br.COc1ccc(-c2csc(Cc3nnc4n3CCCCC4)n2)cc1OC`, the figure is -6.22%; as for `CCOC(=O)Cc1csc(NC(=O)c2c(-c3c(F)cccc3Cl)noc2C)n1`, 0.134%; as for `CCOc1ccc(C(=O)Nc2ccc(Cc3ccncc3)cc2)cc1Br`, 22.1%. In the case of `CCOC(=O)C1(CC2CCCCO2)CCN(Cc2cc3ccccc3[nH]2)CC1` (stereo not shown), the “hERG current change (%, negative = inhibition) at 1uM” value is recorded as 2.61%. As for `COCC(=O)NNS(=O)(=O)c1ccccc1[N+](=O)[O-]`, the figure is 11.5%; as for `Cc1cc(C)c(S(=O)(=O)CCC(C)C)c(=O)[nH]1`, 11.1%; as for `N#Cc1c(SCC(N)=O)nc(-c2ccccc2)c2c1CCCC2`, 12.8%. Next, `O=C(COC(=O)c1cc(Cl)ccc1[N+](=O)[O-])NCc1ccc(Cl)cc1Cl`: 2%. Consider `CC(C)CC1=NN(C(=O)c2ccco2)C(O)(C(F)(F)F)C1` (stereo not shown), for which the “hERG current change (%, negative = inhibition) at 1uM” value is recorded as 20.4%. In the case of `COc1cccc(C2NC(=O)CCC2[N+](=O)[O-])c1` (stereo not shown), the “hERG current change (%, negative = inhibition) at 1uM” value stood at 4.31%.

For the compound `CCCCCN(C(=O)COC(=O)c1ccc(Br)o1)c1c(N)n(CCCC)c(=O)[nH]c1=O`, the “hERG current change (%, negative = inhibition) at 1uM” value is listed as -0.908%. As for `Cc1ccc(N2C(=O)Nc3ccc(Br)cc3C2(O)C(=O)NCCN(C)C)cc1C` (stereo not shown), the “hERG current change (%, negative = inhibition) at 1uM” value was determined as 11.4%. With `COc1ccc(CC(=O)Nc2c(C(=O)N3CCN(c4ccccc4)CC3)oc3ccccc23)cc1OC`, the “hERG current change (%, negative = inhibition) at 1uM” value was -8.82%.

In the case of `Cc1nn(C(=O)c2nn(C)cc2[N+](=O)[O-])c(C)c1Br`, the “hERG current change (%, negative = inhibition) at 1uM” value is recorded as 10%.

Turning to `O=C1CC(N2CCN(c3cccc(C(F)(F)F)c3)CC2)C(=O)N1c1ccc(F)cc1` (stereo not shown), the “hERG current change (%, negative = inhibition) at 1uM” value was -7.18%. For the compound `CC(=O)n1cc([C@H]2C=C(C(N)=O)O[C@@H](OCc3ccc(CO)cc3)C2)c2ccccc21`, the “hERG current change (%, negative = inhibition) at 1uM” value was 1.24%. With `COc1cccc(CN(C)CC(=O)Nc2ccccc2C(=O)NC2CC2)c1`, the “hERG current change (%, negative = inhibition) at 1uM” value is listed as -10.2%. Regarding `COCCn1nnnc1C(c1cc2cc(OC)c(OC)cc2[nH]c1=O)N1CCN(c2ccc(O)cc2)CC1` (stereo not shown), the “hERG current change (%, negative = inhibition) at 1uM” value is on record as 13.9%. For `CNCC(=O)Nc1c(C)n[nH]c1C`, the “hERG current change (%, negative = inhibition) at 1uM” value is 11.3%. For `CCCCC1=CC2=CC(=O)C(C)(OC(=O)CC)C(=O)C2=CN1c1cccc(C#N)c1` (stereo not shown), the “hERG current change (%, negative = inhibition) at 1uM” value stood at 10.7%. For the compound `O=C(O)CC1S/C(=N/N=C/c2ccc(-c3ccc(Cl)cc3[N+](=O)[O-])o2)NC1=O` (stereo not shown), the “hERG current change (%, negative = inhibition) at 1uM” value was 7.9%. Regarding `Cc1ccc2nc(Cl)c(/C=N/Nc3nc(C)cc(C)n3)c(=O)n2c1`, the “hERG current change (%, negative = inhibition) at 1uM” value is on record as -0.611%. As for `C=CCn1c(SCC(=O)c2c(N)n(C)c(=O)n(C)c2=O)nc2sc(CC)cc2c1=O`, the “hERG current change (%, negative = inhibition) at 1uM” value is given as -7.91%. Consider `CC(C)c1cccc(C(C)C)c1NC(=O)COC(=O)C1=COCCO1`, for which the “hERG current change (%, negative = inhibition) at 1uM” value was 7.2%. Regarding `Fc1ccccc1NC(=S)Nc1ccc(CN2CCOCC2)cc1`, the “hERG current change (%, negative = inhibition) at 1uM” value is recorded as 7.21%. As for `O=C1CCC(C(=O)N2CCc3c(Cl)cccc3C2)CN1CCCN1CCOCC1` (stereo not shown), the figure is 23%; as for `Nc1c(S(=O)(=O)c2ccccc2)c2nc3ccccc3nc2n1Cc1ccco1`, -10.3%. As for `Cn1c(=O)n(-c2ccc(Cl)cc2)c(=O)c2c3c(sc21)COC(C)(C)C3`, the figure is 12%. With `O=C(Nn1c(Cc2cccs2)nc2ccccc2c1=O)c1cccs1`, the “hERG current change (%, negative = inhibition) at 1uM” value is -0.502%. As to `CC(C)COc1ccc(CNC(=S)N/N=C/c2ccc([N+](=O)[O-])cc2)cc1`, the “hERG current change (%, negative = inhibition) at 1uM” value stood at 1.75%. Next, `CCOC(=O)c1ccc(NC(=O)c2cccc(S(=O)(=O)N3CCOCC3)c2)cc1`: 0.504%; `Cc1ccccc1CCN1CCCC(CN(C)CC(C)(C)C)C1` (stereo not shown): 11.8%; `CC(C)CC(=O)NCc1ccc(F)cc1`: 16.5%. `N#CC(C(=O)OC1CCCCC1)c1nc2ccccc2nc1N1CCOCC1` (stereo not shown): the “hERG current change (%, negative = inhibition) at 1uM” value is recorded as -22.9%. Consider `CCc1cccc(N(C(=O)c2csnn2)C(C(=O)NC2CCCCC2)c2cccnc2)c1` (stereo not shown), for which the “hERG current change (%, negative = inhibition) at 1uM” value is 9.58%.
